# Laboratory results published in ChEMBL document CHEMBL4888484, “Replenishing the malaria drug discovery pipeline: Screening and hit evaluation of the MMV Hit Generation Library 1 (HGL1) against asexual blood stage Plasmodium falciparum ,using a nano luciferase reporter read-out” (2022).
# The campaign covered roughly 150,000 compounds. About 540 (0.36%) showed an effect of 50% or more. The list shows a part of the results.
# Test system: Plasmodium falciparum
# Assay: Primary screen in NF54 nanoGlo assay, in single point, at 2uM, 72h; a lower Z score goes with more inhibition
# Format: functional, Erythrocyte
# Settings: timepoint 72 hour
SMILES,% Inhibition,Z score
Cc1c(C)n(C[C@H](O)CN2CCOCC2)c2ccc(F)cc12,-8%,1.04
CCOC(=O)N1CCc2c(nc(-c3ccc(F)cc3)n(CC(=O)Nc3ccc(Cl)cc3)c2=O)C1,34%,-3.88
CC(=O)N1CCC(Cc2ccc(C(=O)N3CCCc4ccccc43)cc2)CC1,-12%,2.14
CC(C)n1ccc2cc(C(=O)N3CCN(S(C)(=O)=O)CC3)ccc21,-9%,1.23
CC1(C)[C@@H](Nc2ncncc2C#N)[C@@H]1c1ccccc1,-2%,0.46
CC(C)(CO)C(=O)N[C@H]1C[C@@H]1c1ccccc1OC(F)F,-16%,1.87
CC(C)(C)OC(=O)N1CC(O)(C2(C(=O)N3CC[C@H](F)C3)CCC2)C1,7%,-0.91
Cc1ccc(=O)n(CC(=O)N(c2cccc(F)c2)C2CCCC2)n1,3%,-0.33
CCN1CCC[C@@H]1CNC(=O)c1cc(-c2ccc(OC)cc2)nc2ccc(C(C)C)cc12,6%,-0.72
CC(C)c1n[nH]c2c1CN(Cc1cccc(C(=O)O)c1)CC2,-10%,2.08
COc1cc(-c2nc3[nH]cnn3c2Nc2c(C)cccc2C)ccc1O,-15%,1.65
CN1c2ccccc2N(CCNC(=O)c2cncc(Br)c2)S1(=O)=O,-11%,1.62
Cc1nn(CCCNC(=O)CCc2ccncc2)c(C)c1Cl,-8%,1.24
Cn1cncc1CC(=O)N(C1CC1)C1CN(C(=O)OC(C)(C)C)C1,12%,-1.67
Cc1cnc(CN2C[C@]3(CCCN(C(=O)c4cn(C)nc4C)C3)CCC2=O)cn1,-9%,1.06
Cc1nc(CCNC(=O)c2ccoc2C)cs1,-13%,2.25
C[C@H](Nc1ncccn1)c1cccc(-n2cccn2)c1,2%,-0.32
Cc1cccc(NC(=O)N2CCC3(CC2)Oc2ccccc2C(=O)N3Cc2ccccc2F)c1,2%,-0.4
CCCOc1ccc([C@H](C)N)cc1OC,-8%,1.12
Cc1ccc2c(c1C)NC(=O)C21NC(C(C)O)[C@H]2C(=O)N(Cc3ccc4c(c3)OCO4)C(=O)[C@H]21 (stereo partly drawn),-12%,1.55
CCN(c1nc(C)nc2c1cnn2C)[C@H]1CCNC1=O,-2%,0.32
CCOc1cccc(Cc2noc([C@@H]3CCCN3Cc3ccc(F)cc3)n2)n1,-7%,1.05
O=C(NS(=O)(=O)Cc1c(F)cccc1F)c1csc([C@@H]2CCCO2)n1,-7%,1.08
O=C(NCc1ccc(Cl)cc1)N1C[C@H]2CC[C@@H](C1)[C@H]2O,-8%,0.9
OC1CCCC1C1CCCN1c1cncc(Br)c1 (stereo not drawn),-6%,0.64
Cc1cc(O)c(C(=O)NCc2ccsc2)cn1,-9%,1.36
CC1CC(c2ccccc2)CN1CCCn1ccnc1 (stereo not drawn),-3%,0.31

SMILES,% Inhibition,Z score
CCOc1ccc(-c2nc(CN(c3ccccc3OCC)S(=O)(=O)c3cccs3)c(C)o2)cc1,-8%,1.2
COc1ccc(S(=O)(=O)Nc2cnc3c(cnn3C(C)C)c2)cc1OC,-8%,1.05
CNC(=O)[C@@H]1C[C@H](N)CN1C(=O)C1(Nc2ccc(C)c(C)c2)CCCCC1,-7%,1.34
O=C(CNC(=O)[C@H]1CC[C@H](CNS(=O)(=O)c2ccc(F)cc2)CC1)NCCO,-10%,1.03
CN(CCC(=O)Nc1ccc2c(c1)OCCO2)Cc1ccc(F)cc1,-10%,1.13
CC(C)CN[C@H]1[C@H](O)[C@@H](N2CCC(Cc3ccccc3)CC2)[C@@H]2OC[C@H]1O2,-9%,1.21
CN(CCc1noc(C2CC2)n1)c1ncncc1C(=O)O,-2%,0.32
Cc1ccc(NC(=O)N2CCC(O)(c3c(F)cccc3F)CC2)nc1,-21%,2.81
COC(=O)c1cccc(S(=O)(=O)Nc2nnc3ccccn23)c1C,3%,-0.46
Cc1nc(C)c(-c2cc(C(=O)NCc3cccnc3)[nH]n2)s1,-6%,0.77
COc1nn(C)cc1CNC(=O)[C@@H]1CCc2cccnc21,-4%,0.46
CC(C)Cn1cc(C(=O)N(Cc2ccco2)c2ccccn2)cn1,13%,-1.63
Cc1ccsc1-c1cc(NS(=O)(=O)C[C@H]2CCCCO2)[nH]n1,0%,-0.03
COc1ccncc1NC(=O)CCOc1ccccc1,-1%,0.16
CS(=O)(=O)NC[C@@](O)(c1ccccc1)C1CC1,4%,-0.49
CCc1ncc(NC(=O)NC(C)(C)c2noc(C)n2)cn1,-7%,0.77
COc1ccc(-c2nc3c(cnn3C3CCN(C)CC3)[nH]2)cn1,-7%,0.9
CC1CC(C)(C)C(CNC(=O)c2ccccn2)C1NC(=O)c1ccccn1 (stereo not drawn),-18%,2.36
Cc1nc(CC(=O)NC[C@@H]2C[C@@H]3C=C[C@@H]2C32CC2)cs1,-6%,0.94
Fc1ccc(-c2cnc3n2C[C@H](CNCc2cccs2)OC3)cc1,-6%,0.9
Cn1nc(CN2CCCC2)c2c1CCN(S(=O)(=O)c1ccc(F)cc1F)C2,-3%,0.54
CC1(C)CN(C[C@@H]2CNC(=O)C2)Cc2ccccc21,-11%,1.69
Cc1cc(C(=O)N[C@H]2CC[C@@H](CO)CC2)ccc1Cl,3%,-0.47
COCC1(C2CCC2)CN(C(=O)N[C@H]2CCCc3c(F)cccc32)C1,1%,-0.24
CC#CCNC(=O)N[C@@H](CC)c1noc(C)n1,1%,-0.09
CCCO[C@H]1CCCN(c2ncnc3[nH]ccc23)C1,0%,-0.05
Cc1ccccc1C1(O)CCN(CCC2CCS(=O)(=O)C2)C1 (stereo not drawn),-4%,0.76
